{"source": "paper PMC6919601", "about": "“Identification of Plasmodium dipeptidyl aminopeptidase allosteric inhibitors by high throughput screening” (PLoS ONE, 2019)", "note": "Out of some 110,000 compounds screened, about 230 (0.21%) showed an effect of 50% or more. The list shows a part of the results.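 Further: 30 min substrate incubation versus DMSO and 10 µM JCP410 controls.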"}
{"molecular_target": "DPAP1 (Plasmodium falciparum, UniProt Q8IIJ9)", "sequence (Q8IIJ9 whole entry, looked up)": "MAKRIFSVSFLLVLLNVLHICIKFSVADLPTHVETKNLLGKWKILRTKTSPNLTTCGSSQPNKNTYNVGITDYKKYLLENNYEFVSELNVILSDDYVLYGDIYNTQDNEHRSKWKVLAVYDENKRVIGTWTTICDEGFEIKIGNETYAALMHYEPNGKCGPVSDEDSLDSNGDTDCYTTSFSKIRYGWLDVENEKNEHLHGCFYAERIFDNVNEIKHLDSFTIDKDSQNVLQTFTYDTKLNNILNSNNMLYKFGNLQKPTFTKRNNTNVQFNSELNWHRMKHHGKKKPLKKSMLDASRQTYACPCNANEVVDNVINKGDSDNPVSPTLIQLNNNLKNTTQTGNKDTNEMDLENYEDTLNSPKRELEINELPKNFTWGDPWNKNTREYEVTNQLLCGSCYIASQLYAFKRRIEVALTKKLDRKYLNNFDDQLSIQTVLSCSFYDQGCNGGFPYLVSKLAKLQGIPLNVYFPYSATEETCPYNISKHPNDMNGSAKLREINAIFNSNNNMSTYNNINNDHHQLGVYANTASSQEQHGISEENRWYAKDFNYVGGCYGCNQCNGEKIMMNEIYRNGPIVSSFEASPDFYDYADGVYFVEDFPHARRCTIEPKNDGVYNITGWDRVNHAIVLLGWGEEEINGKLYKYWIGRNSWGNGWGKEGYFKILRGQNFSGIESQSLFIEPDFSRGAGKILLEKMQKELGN", "test": "primary screen, percent inhibition; read by cleavage of a fluorogenic dipeptide substrate; higher = more effect of the substance", "set-up": "species or system P. falciparum D10 trophozoite lysates; single well", "units": {"% Inhibition @ 10 uM": "%"}}
{"smiles": "CC(C)CCn1c(Br)nc2c1c(=O)n(CC(N)=O)c(=O)n2C", "% Inhibition @ 10 uM": -4.6}
{"smiles": "COc1ccc2c(c1)nc(C)n2Cc1ccccc1", "% Inhibition @ 10 uM": -1.37}
{"smiles": "COc1cccc(NC(=O)c2ccc(C)c(C)c2)c1", "% Inhibition @ 10 uM": 5.28}
{"smiles": "CCOC(=O)c1c(NC(=O)c2c(-c3ccccc3)noc2C)sc(C(=O)N(CC)CC)c1C", "% Inhibition @ 10 uM": 2.32}
{"smiles": "Cc1ccc2nc3c(cc(C(=O)NCCc4ccccc4)c(=N)n3CCN3CCOCC3)c(=O)n2c1", "% Inhibition @ 10 uM": 5.17}
{"smiles": "C=CCn1c(=N)c(C(=O)NC2CCCCC2)cc2c(=O)n3cc(C)ccc3nc21", "% Inhibition @ 10 uM": 1.76}
{"smiles": "Cc1cccc(S(=O)(=O)N2CCSC2c2ccccc2)c1", "note": "(stereo not shown)", "% Inhibition @ 10 uM": -7.5}
{"smiles": "Cc1nc2c(-c3ccc(F)cc3)c(C)nn2c(C)c1CCC(=O)N1CCN(Cc2ccccc2)CC1", "% Inhibition @ 10 uM": 2.93}
{"smiles": "COc1ccccc1Cn1ccn(Cc2ccccc2F)c(=O)c1=O", "% Inhibition @ 10 uM": 1.23}
{"smiles": "COc1cccc(N(CC(=O)N2CCN(c3cc(Cl)ccc3C)CC2)S(C)(=O)=O)c1", "% Inhibition @ 10 uM": -7.27}
{"smiles": "O=C(CN1CCCCC1)Nc1c(C(=O)c2ccc(F)cc2)oc2ccccc12", "% Inhibition @ 10 uM": -3.9}
{"smiles": "COc1ccc(CC(C(=O)O)C(C)C(=O)O)cc1", "note": "(stereo not shown)", "% Inhibition @ 10 uM": -6.06}
{"smiles": "O=C(c1cccnc1)N(Cc1ccccc1)Cc1ccccc1", "% Inhibition @ 10 uM": 3.09}
{"smiles": "CCOC(=O)N1CCN(CCN2CCn3c2nc2ccccc23)CC1", "% Inhibition @ 10 uM": -5.14}
{"smiles": "Cc1ccc(NC(=O)COc2ccc(S(=O)(=O)NCc3ccccc3)cc2)cc1Cl", "% Inhibition @ 10 uM": -1.55}
{"smiles": "Cc1ccc(Cl)cc1NC(=O)C1CC(=O)N(c2ccc(F)cc2)C1", "note": "(stereo not shown)", "% Inhibition @ 10 uM": 0.661}
{"smiles": "c1cnc(N2CCN(Cc3nnc(-c4ccc5c(c4)OCO5)o3)CC2)nc1", "% Inhibition @ 10 uM": 2.5}
{"smiles": "Cc1ccc(N2CC(C(=O)Nc3ccc(Cl)cc3)CC2=O)cc1C", "note": "(stereo not shown)", "% Inhibition @ 10 uM": -10.4}
{"smiles": "O=C(NCCc1ccccc1)C(Cc1ccccc1)NS(=O)(=O)c1cccc2cccnc12", "note": "(stereo not shown)", "% Inhibition @ 10 uM": -7.99}
{"smiles": "CCOc1ccc(CN2CCN(Cc3c[nH]c4ccccc34)CC2)cc1", "% Inhibition @ 10 uM": -1.26}
{"smiles": "Cc1oc(-c2ccccc2F)nc1CS(=O)(=O)CC(=O)NC1CCCC1", "% Inhibition @ 10 uM": 1.55}
{"smiles": "CCOC(=O)c1cc2c(=O)n3ccccc3nc2n(C(C)C)/c1=N\\C(=O)c1cc(OC)cc(OC)c1", "% Inhibition @ 10 uM": 4.37}
{"smiles": "O=C(Nc1cccnc1Cl)c1ccc(C(F)(F)F)cc1", "% Inhibition @ 10 uM": -3.65}
{"smiles": "Cc1cc(C)c2c(-n3cccc3)c(C(=O)NCCCN(C)Cc3ccccc3)sc2n1", "% Inhibition @ 10 uM": -4.91}
{"smiles": "COC(=O)CCS(=O)(=O)c1ccc(Br)cc1", "% Inhibition @ 10 uM": -5.41}
{"smiles": "CCCCn1cnc2scc(-c3ccc(OCCC)cc3)c2c1=O", "% Inhibition @ 10 uM": 2.45}
{"smiles": "CC(C)(C)C(=O)NC(=S)Nc1cccc(O)c1", "% Inhibition @ 10 uM": -6.08}
{"smiles": "Cc1cccc(NC(=O)C(NC(=O)C2CCCCC2)C(C)C)n1", "note": "(stereo not shown)", "% Inhibition @ 10 uM": -0.972}
{"smiles": "O=C(c1ccccc1)c1ccc(NC(=O)C2CCCCC2)cc1", "% Inhibition @ 10 uM": 0.907}
{"smiles": "Cc1ccc(S(=O)(=O)N(CC(=O)NCc2ccncc2)c2cccc(Br)c2)cc1", "% Inhibition @ 10 uM": 0.145}
{"smiles": "c1ccc2[nH]c(CSCCC3CCCCC3)nc2c1", "% Inhibition @ 10 uM": 11.9}
{"smiles": "c1ccc(CN2CCS/C2=N/c2ccccc2)cc1", "% Inhibition @ 10 uM": 0.0265}
{"smiles": "CCn1c(C(=O)O)c(CNCCc2ccc(SC)cc2)c2ccc(C)cc21", "% Inhibition @ 10 uM": -3.86}
{"smiles": "COc1cccc2c1OC1(C)C(C)C2NC(=S)N1CC1CCCO1", "note": "(stereo not shown)", "% Inhibition @ 10 uM": -1.29}
{"smiles": "O=C(NCCn1ccc2ccccc21)C1CCCCC1", "% Inhibition @ 10 uM": -0.396}
{"smiles": "C=CCn1c(NCc2sccc2C)nc2ccccc21", "% Inhibition @ 10 uM": 1.64}
{"smiles": "CC(=O)C(=CNc1cc(-c2ccc(C)cc2)nn1-c1ccccc1)C(C)=O", "% Inhibition @ 10 uM": -2.8}
{"smiles": "CCc1cccc(C)c1NC(=O)CN(C1CCCCC1)S(C)(=O)=O", "% Inhibition @ 10 uM": -0.992}
{"smiles": "COc1ccccc1C(=O)N/C(=C\\c1ccc2c(c1)OCO2)C(=O)NCCCCCC(=O)O", "% Inhibition @ 10 uM": 7.1}
{"smiles": "CCOc1cccc(-c2nc(O)c3c(n2)Oc2c(C)cccc2C3)c1O", "% Inhibition @ 10 uM": 5.48}
{"smiles": "CCCCCC(=O)NCCC(=O)O", "% Inhibition @ 10 uM": -0.415}
{"smiles": "Cc1ccc(NC(=O)C(C)Oc2ccccc2)nc1", "note": "(stereo not shown)", "% Inhibition @ 10 uM": -3.16}
{"smiles": "CC(=O)Nc1ccc(-c2ccc(OCc3ccccc3)cc2)cc1", "% Inhibition @ 10 uM": -1.41}
{"smiles": "O=C(Nc1ccc(S(=O)(=O)N2CCC(C(=O)O)CC2)cc1)c1ccccc1Cl", "% Inhibition @ 10 uM": 1.49}
{"smiles": "Fc1ccc(Nc2ncnc3ccccc23)cc1Cl", "% Inhibition @ 10 uM": -6.92}
{"smiles": "O=C(O)CCCN1C(=O)c2ccccc2C1=O", "% Inhibition @ 10 uM": 4.73}
{"smiles": "CC1=[N+]([O-])C2(C)CCCCC2(O)[N+]([O-])=C1C", "note": "(stereo not shown)", "% Inhibition @ 10 uM": -0.0626}
{"smiles": "Cc1ccc(S(=O)(=O)N(C)CC(=O)Nc2ccccc2C)cc1", "% Inhibition @ 10 uM": -1.99}
{"smiles": "CCCN1C2=C(C(=O)CC(C)(C)C2)C(c2ccc(OC)c(OC)c2)C2=C1CC(C)(C)CC2=O", "% Inhibition @ 10 uM": -5.28}
{"smiles": "CC(=O)N1CCN(c2ccc(NCc3ccccc3)cc2)CC1", "% Inhibition @ 10 uM": -7.15}
{"smiles": "O=C(c1ccc(Cl)cc1)N1CCN(CCN2C(=O)c3cccc4cccc(c34)C2=O)CC1", "% Inhibition @ 10 uM": -5.31}
{"smiles": "Cc1ccc(C)c(S(=O)(=O)NC(C)C(=O)NCc2ccccn2)c1", "note": "(stereo not shown)", "% Inhibition @ 10 uM": 10.3}
{"smiles": "Cc1ccc(S(=O)(=O)Cc2ccc(C(=O)N3CCN(c4ccccn4)CC3)o2)cc1", "% Inhibition @ 10 uM": -1.28}
{"smiles": "CN1C(=O)c2ccccc2C(C(=O)Nc2nccs2)C1c1cccs1", "note": "(stereo not shown)", "% Inhibition @ 10 uM": -7.02}
{"smiles": "Cc1c(Cl)cccc1NC(=O)C(O)c1ccccc1", "note": "(stereo not shown)", "% Inhibition @ 10 uM": 0.605}
{"smiles": "Cc1oc(-c2ccccc2Cl)nc1CS(=O)CC(=O)NCCC(C)C", "note": "(stereo not shown)", "% Inhibition @ 10 uM": 0.689}
{"smiles": "c1ccc(CCSc2nnc3sc4ccccc4n23)cc1", "% Inhibition @ 10 uM": -1.18}
{"smiles": "COCCCNS(=O)(=O)c1ccc(-c2ccc(O)nn2)o1", "% Inhibition @ 10 uM": -8.17}
{"smiles": "COc1ccccc1CCn1c(-c2ccccc2)cn2c3c(=O)n(C)c(=O)n(C)c3nc12", "% Inhibition @ 10 uM": -8.05}
{"smiles": "O=C(NCc1ccc(Cl)cc1)c1ccc2nc3c(cc2c1)CCS3", "% Inhibition @ 10 uM": -3.78}
{"smiles": "CCCC12CN3CC(C)(CN(C1)C3c1c(C)[nH]c3ccccc13)C2=O", "note": "(stereo not shown)", "% Inhibition @ 10 uM": 0.565}
{"smiles": "O=C(Cn1cnc2c(oc3ccccc32)c1=O)N1CCCCC1", "% Inhibition @ 10 uM": -0.0401}
{"smiles": "Cc1ccc2c(c1)C(O)c1ccccc1-2", "note": "(stereo not shown)", "% Inhibition @ 10 uM": -4.76}
{"smiles": "O=C1CC(c2nc(-c3ccccc3)cs2)C2(CCCCC2)O1", "note": "(stereo not shown)", "% Inhibition @ 10 uM": 4.08}
